Results reported in PubChem BioAssay AID686979 (National Center for Advancing Translational Sciences (NCATS), 2013).
Among all 420,000 compounds or so, about 50,000 (12%) were called active. The shares of active, inactive and inconclusive entries below differ from those in the screen. The call rests on the fitted dose curve; in most records, active means well fitted inhibition curve with a large enough effect; inconclusive means small, poorly fitted or top-dose-only effect; inactive means flat fitted curve, though single readings scatter. No potency is given beside an inconclusive call; the fits are too rough.

Assay: qHTS for Inhibitors of human tyrosyl-DNA phosphodiesterase 1 (TDP1): qHTS in cells in presence of CPT; further: nearly all actives have a fitted effect of over 55% in size
Details: chicken DT40 Tdp1-/-;hTDP1 cells + 20 nM CPT, ATP luminescence, 48 h; activity change, negative = growth inhibition: at 46.2 µM (top of the series) unless noted
Summary of the method: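 Cell growth measured by CellTiter-Glo luminescence after a minimum 48 h, 37 C compound exposure with 20 nM CPT in Tdp1-knockout DT40 cells stably expressing hTDP1, seeded 400/well; qHTS titration format.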
On the % scale 0 is the no-effect control and ±100 the full control effect; potency means the concentration at half of the fitted maximal effect; tags describe the fitted curve by direction and shape.

Row | Compound | activity change, negative = growth inhibition | Potency
1 | COc1ccc(NC(=O)N2CCCC3(CCN(C(=O)c4cc(C(F)(F)F)cc(C(F)(F)F)c4)CC3)C2)cc1 | inactive: -3.12% | 
2 | Cc1ccc2oc(=O)n(CCOc3ccccc3Cl)c2c1 |  | inconclusive [inhibitor, partial curve, poor fit]
3 | Cc1ccc2nc(NCC(=O)O)nc(-c3ccccc3)c2c1 |  | inconclusive [inhibitor, single point]
4 | C#CC1CCCCC1NC(=O)Nc1cnccc1C(F)(F)F (configuration not stated) | inactive: -0.535% | 
5 | COc1ccc(NC(=S)Nc2ccccc2)cc1 |  | inconclusive [inhibitor, single point]
6 | OC(c1ccccc1)(c1ccc(F)cc1)C(c1ccccc1)N1CCOCC1 (configuration not stated) |  | active: 16.4 µM
7 | CC1(C)Cc2nc3oc4c(NCc5ccccc5)ncnc4c3cc2CO1 |  | inconclusive [inhibitor, single point]
8 | O=C(CSCc1c(Cl)cccc1Cl)Nc1ccc2c(c1)OCCO2 | inactive: -23.1% | 
9 | CCc1ccc2oc(C(=O)NCc3ccccc3)cc(=O)c2c1 | inactive: -13.8% | 
10 | Cc1[nH]c(=O)n(C(C)C)c(=O)c1Br | inactive: -0.201% | 
11 | COCCn1c(Cc2ccccc2)nnc1SCC(=O)N1CCCC1=O | inactive: -6.14% | 
12 | COC(=O)c1cc(OC)c(OC)cc1NC(=O)c1ccc(OC)cc1 |  | inconclusive [inhibitor, partial curve]
13 | O=C(Nc1ccc2nc(-c3ccccc3)[nH]c2c1)c1cccs1 |  | active: 25.9 µM
14 | CC(NC(=O)COc1ccccc1)C(=O)N1CCN(c2ccc(F)cc2)CC1 (configuration not stated) |  | inconclusive [inhibitor, single point]
15 | CCOCC(=O)Nc1ccc2c(c1)N(S(=O)(=O)c1cccs1)CCC2 |  | inconclusive [inhibitor, partial curve]
16 | COc1ccc([C@H]2CC(=O)C=C(c3cccc4c3Oc3ccccc3S4)C2)cc1OC |  | active: 16.4 µM
17 | CC(=O)c1cccc(NC(=O)C2CCN(S(=O)(=O)c3ccc(C)cc3)CC2)c1 | inactive: 1.63% | 
18 | COC(=O)c1onc(-c2c(C)cc(C)cc2C)c1C(=O)OC |  | inconclusive [inhibitor, single point]
19 | COc1ccc(CN(C)C(=O)C(Cc2ccccc2)NC(=O)c2ccccc2)cc1F (configuration not stated) |  | active: 16.4 µM
20 | CN(C)c1cccc(/C=C(\C#N)c2ccccc2)c1 |  | active: 2.91 µM
21 | CC12CCC(=O)C=C1CCC1C2C(O)CC2(C)C1CCC21OCC1=O (configuration not stated) | inactive: -28.1% | 
22 | Clc1ccc(Cc2noc(CN3CCN(c4ccccc4)CC3)n2)c(Cl)c1 |  | inconclusive [inhibitor, single point]
